Experimental data taken from publication PMC12150326 (The Journal of Organic Chemistry, 2025).
Like-named read-outs stand apart in the source and are kept apart here.

Tests used:
[1] = system: NCI-H322M; assay type: cell-based, human; conditions: for GI50: Homo sapiens, NCI-H322M
Procedure: (aR)-6, (aS)-6, (aS)-iso -6, and (aR)-iso -6 were submitted to the 60 Cell Screen panel and evaluated at 5 doses (100 μM, 10 μM, 1 μM, 0.1 μM, and 0.01 μM). […] The complete report from this submission is available at the publisher’s Web site as a separate Supporting Information file. For COMPARE analysis, TGI levels of response for (aR)-DM-MTC (6) and (aS)-iso-DM-MTC were compared to those of several established tubulin inhibitors previously tested in the NCI-60 screen.

[2] = system: NCI-H322M; parameters: method as in NCI-60 database; conditions: NCI-H322M ref NCI-60 database, cited from earlier work

| SMILES | Log10GI50 [1] [Molar] | Log10LC50 [1] [Molar] | Log10TGI [1] [Molar] | GI50 [1] [µM] | Log10GI50 ([1]; listed as (aR)-DM-MTC) [Molar] | Log10GI50 ([1]; […]) [Molar] | GI50 [2] [µM] | Log10GI50 [2] [Molar] | Log10LC50 [2] [Molar] | Log10TGI ([2]; listed as 757/1) [Molar] | Log10GI50 ([2]; listed as 757/9) [Molar] | Log10GI50 ([2]; listed as 757/21) [Molar] | Log10TGI ([2]; listed as 757/21) [Molar] |
| --- | --- | --- | --- | --- | --- | --- | --- | --- | --- | --- | --- | --- | --- |
| COc1cc(C)c(-c2ccc(OC)c(=O)cc2C)c(OC)c1OC (single isomer, unassigned) [(aR)-6] | -5.18 | > -4.00 | > -4.00 | 6.61 | -5.18 | – | – | – | – | – | – | – | – |
| COc1cc(C)c(-c2ccc(=O)c(OC)cc2C)c(OC)c1OC (single isomer, unassigned) [(aR)-iso-6] | > -4.00 | > -4.00 | > -4.00 | – | – | – | – | – | – | – | – | – | – |
| COc1cc(C)c(-c2ccc(OC)c(=O)cc2C)c(OC)c1OC (single isomer, unassigned) [(aS)-6] | > -4.00 | > -4.00 | > -4.00 | – | – | – | – | – | – | – | – | – | – |
| COc1cc(C)c(-c2ccc(=O)c(OC)cc2C)c(OC)c1OC (single isomer, unassigned) [(aS)-iso-6] | -4.22 | > -4.00 | > -4.00 | 60.3 | – | -4.22 | – | – | – | – | – | – | – |
| COc1cc2c(c(OC)c1OC)-c1ccc(OC)c(=O)cc1[C@@H](NC(C)=O)CC2 [Colchicine, (−)-Colchicine] | – | – | – | – | – | – | 0.06 | -7.21 | > -4.00 | -7.40 | -7.37 | -7.21 | > -4.00 |
